Hit rate of the full screen: of about 110,000 compounds, about 230 (0.21%) showed an effect of 50% or more. This is one part of the list.
molecular target: DPAP1 (Plasmodium falciparum, UniProt Q8IIJ9); assay: primary screen, percent inhibition; read by cleavage of a fluorogenic dipeptide substrate; higher = more effect of the substance; design: species or system P. falciparum D10 trophozoite lysates; single well
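Also: 30 min substrate incubation versus DMSO and 10 µM JCP410 controls.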

Chain of DPAP1 (Q8IIJ9 whole entry, looked up): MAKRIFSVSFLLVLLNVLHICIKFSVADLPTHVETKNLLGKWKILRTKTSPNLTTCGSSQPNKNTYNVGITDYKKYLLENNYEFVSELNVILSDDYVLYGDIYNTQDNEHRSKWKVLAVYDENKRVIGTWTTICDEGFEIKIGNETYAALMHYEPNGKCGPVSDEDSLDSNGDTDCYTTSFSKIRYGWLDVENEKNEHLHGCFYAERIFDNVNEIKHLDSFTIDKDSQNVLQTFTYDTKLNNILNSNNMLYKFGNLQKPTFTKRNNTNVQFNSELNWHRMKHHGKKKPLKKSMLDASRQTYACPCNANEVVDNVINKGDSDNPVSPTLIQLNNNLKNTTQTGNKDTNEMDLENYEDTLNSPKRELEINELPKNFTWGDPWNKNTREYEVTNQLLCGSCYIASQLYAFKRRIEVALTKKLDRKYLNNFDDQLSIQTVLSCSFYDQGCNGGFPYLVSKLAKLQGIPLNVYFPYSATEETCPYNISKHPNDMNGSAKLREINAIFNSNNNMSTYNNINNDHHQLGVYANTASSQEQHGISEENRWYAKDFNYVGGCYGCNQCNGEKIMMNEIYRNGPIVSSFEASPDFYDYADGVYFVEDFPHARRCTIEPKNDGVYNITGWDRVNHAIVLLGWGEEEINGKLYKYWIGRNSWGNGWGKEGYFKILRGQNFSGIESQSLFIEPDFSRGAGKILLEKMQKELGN

| Structure (SMILES) | % Inhibition @ 10 uM [%] |
| --- | --- |
| FC(F)(F)c1cccc(CNC2CCN(CCc3ccccc3)CC2)c1 | 0.217 |
| Cc1n[nH]c(C)c1CCc1nc2c3ccccc3nc(S)n2n1 | 18.4 |
| c1ccc2c(c1)nc(N1CCN(C3CCCCC3)CC1)c1nnnn12 | 0.166 |
| CCCCCCNC(=O)Nc1ccccc1 | 1.83 |
| COc1ccc(C2CC(=O)C3=C(C2)NC(=O)CC3c2cccc(Oc3ccccc3)c2)cc1 (stereo not drawn) | 3.11 |
| CC(C)CC(NC(=O)NCc1ccccn1)C(=O)NCC#N (stereo not drawn) | -3.97 |
| CCN(CCN(C)C)Cc1ccc([N+](=O)[O-])cc1 | -5.42 |
| COc1cc(OC)c(C2SCCN2S(=O)(=O)c2ccc(Cl)cc2)cc1OC (stereo not drawn) | -13.3 |
| CCC1CCCCN1Cc1ccc(CNC(=O)Nc2cn(CC(C)C)c(=O)c3ccccc23)o1 (stereo not drawn) | -3.45 |
| COc1ccccc1N1CCN(S(=O)(=O)c2ccc(-c3ccccc3)cc2)CC1 | 6.08 |
| CCC[C@H](NC(=O)[C@@H](NC(=O)c1ccc(-c2ccccc2Cl)cc1)C1CCCCC1)C(=O)c1nnc(CC)o1 | -6.98 |
| C=Cc1ccc(Cn2c(C(=O)O)c(CNCc3cccc(C)c3)c3ccc(C)cc32)cc1 | 1.94 |
| O=C1OC(c2ccc(Cl)cc2)=N/C1=C/c1cc2ccccc2nc1N1CCOCC1 | 0.275 |
| CC1(C)CC(=O)c2c(nn(-c3ccccc3)c2N)C1 | 0.343 |
| CC(C)n1c(Sc2nccn2C)nc2c1c(=O)n(C)c(=O)n2C | 0.983 |
| CS/C=C(\c1ccccc1)c1ccncc1 | -2.87 |
| CCCc1cc(=O)n(C)c(CC(=O)c2ccc(Cl)cc2)n1 | 6.79 |
| CC1CC(C)(C)NC(=S)N1CC(=O)NCc1ccc2c(c1)OCO2 (stereo not drawn) | 2.06 |
| CC(C)CCn1c(=O)c2sccc2n2c(CCCC(=O)NCc3ccco3)nnc12 | 1.66 |
| O=C(NCc1ccccc1Cl)C(=O)Nc1cccc(C(F)(F)F)c1 | -4.01 |
| CC(=O)Nc1ccc2ccccc2c1C#N | -2.85 |
| Clc1ccccc1CNc1cc2c(cc1Br)OCCO2 | 1.87 |
| CN(C)CCN(C)Cc1ccccc1F | -4.4 |
| CC(=O)c1cn(S(=O)(=O)c2ccccc2)c2ccccc12 | 3.81 |
| Cn1c(=O)c2sccc2n2c(CCCC(=O)NCc3cccnc3)nnc12 | -2.72 |
| O=C(NCCc1ccccc1)NC1CCCCC1 | -0.414 |

| Structure (SMILES) | % Inhibition @ 10 uM [%] |
| --- | --- |
| CN(C)Cc1cc(C(C)(C)C)cc(C(C)(C)C)c1O | 4.8 |
| CCCCN(Cc1ccccc1)C1CCN(C(=O)OCC)CC1 | -1.82 |
| COc1cc2c(cc1OC)C(c1ccc(Br)cc1)=NCC2 | 0.345 |
| CCOC(=O)C1=C(CN2CCN(C(=O)OCC)CC2)NC(=O)NC1c1ccc(C)cc1 (stereo not drawn) | -1.65 |
| Cc1nnc2c3ccccc3nc(NCc3ccccc3)n12 | -3.9 |
| CC(=O)NS(=O)(=O)c1ccc(NC(=O)c2ccc(C(C)C)cc2)cc1 | 3.27 |
| COc1cc(CNC2CN3CCC2CC3)cc(OC)c1 (stereo not drawn) | -5.11 |
| CCOC(=O)c1noc2ncnc(N(Cc3ccco3)C3CCN(C)CC3)c12 | 1.63 |
| Cc1ccc(S(=O)(=O)c2cnc3ccc(F)cc3c2O)cc1C | -1.7 |
| CCCCC(=O)N1CCc2cc(OC)c(OC)cc2C1COc1ccc(C(=O)OC)cc1 (stereo not drawn) | 3.52 |
| COC(=O)c1c(N)sc2c1CCC(C(C)(C)C)C2 (stereo not drawn) | 1.8 |
| Cn1c(=O)c2c(-c3ccccc3)n(-c3ccc(F)cc3)cc2n(C)c1=O | -1.52 |
| C=CCN1C(=O)NC(=O)/C(=C/c2ccco2)C1=O | 5.98 |
| O=C1CSC(c2ccccc2)N1c1cccc(Cl)c1 (stereo not drawn) | -4.01 |
| COCCCN1CC(=O)C(c2nc3ccccc3s2)=C1N | -1.22 |
| Cc1cccc(C)c1-n1nnnc1C1(N(C)C)CCCCC1 | 4.44 |
| Cc1ccccc1Cn1cnc2c(nnn2Cc2ccccc2F)c1=O | -5.79 |
| Brc1ccc(C2=CC(c3cccs3)n3c(nc4ccccc43)N2)s1 (stereo not drawn) | 1.73 |
| Nc1c(C(=O)Nc2ccccc2)sc2nccc(Nc3ccccc3)c12 | 43 |
| COc1cc2c(cc1OC)C(c1cc(OC)c(OC)c(OC)c1)CC(=O)N2 (stereo not drawn) | -3.09 |
| N#Cc1cc2c(N)c(C(=O)NCc3ccc(Cl)cc3)sc2nc1N | 42.4 |
| COc1cc(Br)c(C2C(C#N)=C(N)Oc3[nH]nc(-c4ccncc4)c32)cc1OC (stereo not drawn) | 7.43 |
| O=C(O)c1ccc2c(c1)C(=O)N(c1cccc(Cl)c1Cl)C2=O | 3.91 |
| COc1ccc(C(=O)C2=C(O)C(=O)N(CCCN3CCOCC3)C2c2ccc(C(C)(C)C)cc2)cc1 (stereo not drawn) | 3.8 |
| O=C(O)CCCN1C(=O)C(O)=C(C(=O)c2ccc(Cl)cc2)C1c1ccccc1 (stereo not drawn) | 3.49 |

— article PMC6919601, “Identification of Plasmodium dipeptidyl aminopeptidase allosteric inhibitors by high throughput screening” (PLoS ONE, 2019)
